No constants are given. Whether binding was seen depends on the method and setting. In cells and extracts the contact can be indirect. Sequences can lack the tags named with a protein.
Biological target: T1, RGS1 (luciferase complementation fusion) (Arabidopsis thaliana), Q8H1F2
T1 chain: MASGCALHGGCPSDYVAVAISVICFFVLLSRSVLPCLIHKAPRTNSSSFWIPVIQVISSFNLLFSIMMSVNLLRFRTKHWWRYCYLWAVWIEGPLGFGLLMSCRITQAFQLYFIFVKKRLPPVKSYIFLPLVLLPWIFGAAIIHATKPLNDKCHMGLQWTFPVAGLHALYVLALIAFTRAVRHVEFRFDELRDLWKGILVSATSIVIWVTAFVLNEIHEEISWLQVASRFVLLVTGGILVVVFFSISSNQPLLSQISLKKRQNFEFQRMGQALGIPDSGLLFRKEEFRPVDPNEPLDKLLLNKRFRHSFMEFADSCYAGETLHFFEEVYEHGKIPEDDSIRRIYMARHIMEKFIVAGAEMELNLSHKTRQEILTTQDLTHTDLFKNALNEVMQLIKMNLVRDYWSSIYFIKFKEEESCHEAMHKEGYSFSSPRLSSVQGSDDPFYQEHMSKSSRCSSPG
Assay: split reporter; luciferase complementation; Nluc and Cluc constructs co-expressed in N. benthamiana leaves by Agrobacterium; leaf disks after 2 days with 1 mM luciferin; with or without flg22, elf18 or chitin
Settings: remark: other sources report otherwise

binding: no binding
B1: BAK1 (luciferase complementation fusion), Q94F62 26-615 (receptor)
chain: NAEGDALSALKNSLADPNKVLQSWDATLVTPCTWFHVTCNSDNSVTRVDLGNANLSGQLVMQLGQLPNLQYLELYSNNITGTIPEQLGNLTELVSLDLYLNNLSGPIPSTLGRLKKLRFLRLNNNSLSGEIPRSLTAVLTLQVLDLSNNPLTGDIPVNGSFSLFTPISFANTKLTPLPASPPPPISPTPPSPAGSNRITGAIAGGVAAGAALLFAVPAIALAWWRRKKPQDHFFDVPAEEDPEVHLGQLKRFSLRELQVASDNFSNKNILGRGGFGKVYKGRLADGTLVAVKRLKEERTQGGELQFQTEVEMISMAVHRNLLRLRGFCMTPTERLLVYPYMANGSVASCLRERPESQPPLDWPKRQRIALGSARGLAYLHDHCDPKIIHRDVKAANILLDEEFEAVVGDFGLAKLMDYKDTHVTTAVRGTIGHIAPEYLSTGKSSEKTDVFGYGVMLLELITGQRAFDLARLANDDDVMLLDWVKGLLKEKKLEALVDVDLQGNYKDEEVEQLIQVALLCTQSSPMERPKMSEVVRMLEGDGLAERWEEWQKEEMFRQDFNYPTHHPAVSGWIIGDSTSQIENEYPSGPR

Source: paper PMC5951851
